Results as given in the supplement of paper PMC4604168 (melanoma cell lines).
Some of the results follow. Single values are uncertain, as repeats are few or missing.

Test system: LOXIMVI
Experiment: cell count relative to DMSO control; melanoma cells; higher = more viable cells
Conditions: library dose: low library concentration; 72 h
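Note: cell number obtained by counting DAPI-stained nuclei in high-throughput microscope images with image analysis software, screen run in 1,536-well plates.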

Row | Compound | cell count [%]
1 | C#Cc1cccc(Nc2ncnc3cc(OCCOC)c(OCCOC)cc23)c1 [erlotinib] + C/C(O)=C(\C#N)C(=O)Nc1cc(Br)ccc1Br [LFM-A13] (first compound 0.8 µM, partner dose 2 µM) | 102
2 | Oc1nc(-c2ccc(C(F)(F)F)cc2)nc2c1CSCC2 + O=C(Oc1ccc([N+](=O)[O-])cc1)N1CCC(C(O)(c2ccc3c(c2)OCO3)c2ccc3c(c2)OCO3)CC1 [JZL184] (first compound 2 µM, partner dose 1 µM) | 91.6
3 | C[C@@H]1CCN(C(=O)CC#N)C[C@@H]1N(C)c1ncnc2[nH]ccc12 + Cc1cc(SCc2sc(-c3ccc(C(F)(F)F)c(F)c3)nc2C)ccc1OCC(=O)O [GW0742] (first compound 1 µM, partner dose 2 µM) | 101
4 | COc1cc2ncnc(Nc3ccc(Oc4ccccc4)cc3)c2cc1OC + O=C(Oc1ccc([N+](=O)[O-])cc1)N1CCC(C(O)(c2ccc3c(c2)OCO3)c2ccc3c(c2)OCO3)CC1 [JZL184] (first compound 2 µM, partner dose 1 µM) | 111
5 | C[C@@H]1CCN(C(=O)CC#N)C[C@@H]1N(C)c1ncnc2[nH]ccc12 + C/C(O)=C(\C#N)C(=O)Nc1cc(Br)ccc1Br [LFM-A13] (first compound 1 µM, partner dose 2 µM) | 66
6 | COCC[n+]1c2c(n(Cc3cnccn3)c1C)C(=O)c1ccccc1C2=O + C/C(O)=C(\C#N)C(=O)Nc1cc(Br)ccc1Br [LFM-A13] (first compound 0.0004 µM, partner dose 2 µM) | 93.9
7 | Cc1cc(Nc2cc(N3CCN(C)CC3)nc(Sc3ccc(NC(=O)C4CC4)cc3)n2)n[nH]1 [Tozasertib] + N.N.[Cl][Pt][Cl] [cisplatin] (first compound 0.006 µM, partner dose 1.6 µM) | 81.6
8 | COc1cc2ncnc(Nc3ccc(Oc4ccccc4)cc3)c2cc1OC + C/C(O)=C(\C#N)C(=O)Nc1cc(Br)ccc1Br [LFM-A13] (first compound 2 µM, partner dose 2 µM) | 98.1
9 | O=C(O)C(=O)Nc1sc2c(c1C(=O)O)CCNC2 + O=C(Oc1ccc([N+](=O)[O-])cc1)N1CCC(C(O)(c2ccc3c(c2)OCO3)c2ccc3c(c2)OCO3)CC1 [JZL184] (first compound 1.66667 µM, partner dose 1 µM) | 106
10 | CC(C)C[C@H](NC(=O)[C@H](Cc1ccccc1)NC(=O)c1cnccn1)B(O)O [Bortezomib] + N.N.[Cl][Pt][Cl] [cisplatin] (first compound 0.001 µM, partner dose 1.6 µM) | 62.9
11 | CC(C)C[C@H](NC(=O)[C@H](Cc1ccccc1)NC(=O)c1cnccn1)B(O)O [Bortezomib] + C[As](C)SC[C@H](NC(=O)CC[C@H](N)C(=O)O)C(=O)NCC(=O)O [Darinaparsin] (first compound 0.001 µM, partner dose 0.4 µM) | 77.5
12 | Cc1nc(Nc2ncc(C(=O)Nc3c(C)cccc3Cl)s2)cc(N2CCN(CCO)CC2)n1 [dasatanib] + C/C(O)=C(\C#N)C(=O)Nc1cc(Br)ccc1Br [LFM-A13] (first compound 0.004 µM, partner dose 2 µM) | 61.5
13 | Cn1c(Nc2ccc(C(F)(F)F)cc2)nc2cc(Oc3ccnc(-c4ncc(C(F)(F)F)[nH]4)c3)ccc21 + O=C(Oc1ccc([N+](=O)[O-])cc1)N1CCC(C(O)(c2ccc3c(c2)OCO3)c2ccc3c(c2)OCO3)CC1 [JZL184] (first compound 0.08 µM, partner dose 1 µM) | 77.2
14 | C#Cc1cccc(Nc2ncnc3cc(OCCOC)c(OCCOC)cc23)c1 [erlotinib] + C[As](C)SC[C@H](NC(=O)CC[C@H](N)C(=O)O)C(=O)NCC(=O)O [Darinaparsin] (first compound 0.8 µM, partner dose 0.4 µM) | 115
15 | Nc1ccn([C@@H]2O[C@H](CO)[C@@H](O)C2(F)F)c(=O)n1 [gemcitabine] + C[As](C)SC[C@H](NC(=O)CC[C@H](N)C(=O)O)C(=O)NCC(=O)O [Darinaparsin] (first compound 0.0004 µM, partner dose 0.4 µM) | 132
16 | COc1cc(N2CCC(N3CCN(C)CC3)CC2)ccc1Nc1ncc(Cl)c(Nc2ccccc2S(=O)(=O)C(C)C)n1 + O=C(Oc1ccc([N+](=O)[O-])cc1)N1CCC(C(O)(c2ccc3c(c2)OCO3)c2ccc3c(c2)OCO3)CC1 [JZL184] (first compound 0.08 µM, partner dose 1 µM) | 93.1
17 | Cn1c(Nc2ccc(C(F)(F)F)cc2)nc2cc(Oc3ccnc(-c4ncc(C(F)(F)F)[nH]4)c3)ccc21 + C/C(O)=C(\C#N)C(=O)Nc1cc(Br)ccc1Br [LFM-A13] (first compound 0.08 µM, partner dose 2 µM) | 55.8
18 | CO[C@H]1C[C@@H]2CC[C@@H](C)[C@@](O)(O2)C(=O)C(=O)N2CCCC[C@H]2C(=O)O[C@H]([C@H](C)C[C@@H]2CC[C@@H](OCCO)[C@H](OC)C2)CC(=O)[C@H](C)/C=C(\C)[C@@H](O)[C@@H](OC)C(=O)[C@H](C)C[C@H](C)/C=C/C=C/C=C/1C [everolimus] + C[As](C)SC[C@H](NC(=O)CC[C@H](N)C(=O)O)C(=O)NCC(=O)O [Darinaparsin] (first compound 0.02 µM, partner dose 0.4 µM) | 78.5
19 | C=CCn1c(=O)c2cnc(Nc3ccc(N4CCN(C)CC4)cc3)nc2n1-c1cccc(C(C)(C)O)n1 + O=C(Oc1ccc([N+](=O)[O-])cc1)N1CCC(C(O)(c2ccc3c(c2)OCO3)c2ccc3c(c2)OCO3)CC1 [JZL184] (first compound 0.02 µM, partner dose 1 µM) | 89.5
